# Source: PubChem BioAssay AID2101 (National Center for Advancing Translational Sciences (NCATS), 2009)
# About 300 (0.091%) of roughly 330,000 compounds were called active. The shares of active, inactive and inconclusive entries below differ from those in the screen. Calls come from the whole dose curve; as a rule, active = well fitted inhibition curve with a large enough effect; inconclusive = small, poorly fitted or top-dose-only effect, or effect the other way, or another doubt; inactive = no such curve, though single readings can be large or run the other way. No potency is given beside an inconclusive call; the fits are too rough.
# Target: Lysosomal acid glucosylceramidase (Homo sapiens) (UniProt P04062)
# Assay: qHTS Assay for Inhibitors and Activators of N370S glucocerebrosidase as a Potential Chaperone Treatment of Gaucher Disease;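 for activity change, negative = inhibition: 0% = full enzyme activity and -100% = no enzyme basal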
# Conditions: N370S GC spleen homogenate, 4MU-glucoside fluorescence; activity change, negative = inhibition: at 59.4 µM (top of the series) unless noted
# Potency is the fitted concentration of half-maximal effect.
SMILES,"activity change, negative = inhibition",Potency
CC(C)C1Nc2ccc(C(=O)N3CCN(c4ccccn4)CC3)cc2NC1=O (stereo not drawn),inactive: -13.5%,
CCCCC(NC(=O)Cc1c(C)c2cc3c4c(oc3cc2oc1=O)CCCC4)C(=O)O (stereo not drawn),,"inconclusive [activator, single point]"
CN1/C(=C\C=N\NC(=O)c2ccccc2Br)C(C)(C)c2ccccc21,,"inconclusive [inhibitor, single point]"
C=CCOc1ccc2c(CC)cc(=O)oc2c1C,,"inconclusive [activator, single point]"
COc1ccc(Cl)cc1N(C(C)C(=O)NC1CCCC1)S(C)(=O)=O (stereo not drawn),inactive: -1.57%,
CCOC(=O)c1c(C=O)c(C)n(Cc2ccc(C)cc2)c1C,,"inconclusive [activator, single point]"
CC(=O)Oc1ccc(/C=C2/CCc3ccccc3C2=O)cc1,,"inconclusive [inhibitor, single point]"
CCCc1cc(=O)n2[nH]c(-c3ccc(Cl)cc3)cc2n1,inactive: -1.45%,
O=C(NCCc1cccs1)c1ccc(CS(=O)Cc2ccc(Cl)cc2)o1 (stereo not drawn),,"inconclusive [inhibitor, single point]"
CC1Sc2ccc(S(=O)(=O)CCC(=O)NCc3ccc(Cl)cc3)cc2NC1=O (stereo not drawn),,"inconclusive [inhibitor, partial curve]"
CCCCNC(=O)c1sc2nc(C)cc(COC)c2c1-n1cccc1,,"inconclusive [activator, partial curve]"
CCOc1cc(/C=C2\C(=N)N3N=C(N4CCCCC4)SC3=NC2=O)ccc1OC(=O)c1ccco1,,"inconclusive [inhibitor, single point]"
Cc1cc(C)cc(N(CC(=O)NC2CCC(C)CC2)S(=O)(=O)c2c(C)[nH]c(=O)[nH]c2=O)c1 (stereo not drawn),,active: 0.398 µM
O=S(=O)(N/N=C1\CC(c2ccccc2)Oc2ccccc21)c1ccccc1 (stereo not drawn),,"inconclusive [activator, partial curve]"
O=C(c1ccc(Oc2ccccc2)cc1)c1nc2c(n1O)CCCC2,,"inconclusive [activator, partial curve]"
O=C(OCC1OC(n2cnc3c(N(C(=O)c4ccccc4)C(=O)c4ccccc4)ncnc32)C(O)C1F)c1ccccc1 (stereo not drawn),,"inconclusive [inhibitor, full curve]"
CCC12CN3CC(CC)(CN(C1)C3c1ccc(OC(C)C)cc1)C2=O (stereo not drawn),,"inconclusive [inhibitor, single point]"
O=C(COc1ccc(F)cc1)N(Cc1ccco1)C1CCS(=O)(=O)C1 (stereo not drawn),,"inconclusive [inhibitor, partial curve]"
Cc1cc(=O)oc2cc(OC(=O)c3nn(C(C)C)c(=O)c4ccccc34)ccc12,,"inconclusive [activator, partial curve]"
c1ccc(CSc2ccc(-c3ccco3)nn2)cc1,inactive: 5.26%,
CCCCc1nc(C(N)=O)c2[nH]c(=O)n(-c3ccccc3F)c2n1,,"inconclusive [activator, partial curve]"
OCC1(Cc2ccccc2)CCN(Cc2ccc(-c3ccco3)cc2)CC1,,"inconclusive [inhibitor, partial curve]"
C[C@@]12CC(=O)C3=C(CCCC3=O)N1CCc1ccccc12,inconclusive: 26.9% [activator],

SMILES,"activity change, negative = inhibition",Potency
COc1ccc(CCNC(=O)C23CN(Cc4ccccc4)CC2C(c2cccc([N+](=O)[O-])c2)=NO3)cc1 (stereo not drawn),inactive: 8.72%,
O=C(CSc1nc(-c2ccccc2)c(-c2ccccc2)o1)N1CCOCC1,inactive: -6.36%,
COc1ccccc1N1CCN(S(=O)(=O)c2cc3[nH]c(=O)c(=O)[nH]c3cc2C)CC1,,"inconclusive [inhibitor, single point]"
CN1CCC(OC(=O)c2ccc(Cl)cc2Cl)CC1,,"inconclusive [inhibitor, single point]"
COc1ccc(-c2cc(C(F)(F)F)c(C#N)c(SCC(=O)O)n2)cc1,inactive: 8.51%,
Cc1ccccc1NC(=O)c1sc2nc(N3CCOCC3)c3c(c2c1N)CCCC3,,"inconclusive [activator, single point]"
COc1cccc(Cn2c(=O)c(-c3ccc(Cl)cc3)nc3cncnc32)c1,inactive: 13.4%,
O=[N+]([O-])c1ccc(CSc2ncnc3c2ncn3C2OC(CO)C(O)C2O)cc1 (stereo not drawn),inactive: -9.42%,
COc1ccc(C(=O)NCCC2=CCCCC2)cc1,,"inconclusive [inhibitor, full curve]"
Cc1cc(C)nc(N/C(=N\S(=O)(=O)Cc2ccccc2)Nc2ccc(F)c(Cl)c2)n1,,"inconclusive [activator, partial curve]"
O=C(C1COc2ccccc2O1)N1CCc2ccccc21 (stereo not drawn),inactive: -6.37%,
O=C(O)c1cccc(Nc2c3ccccc3nc3ccccc23)c1,,"inconclusive [activator, partial curve]"
CCOc1ccccc1NC(=O)Cn1c(=O)n(-c2ccc(OC)cc2OC)c(=O)c2c(C)c(C(=O)N(CC)CC)sc21,,"inconclusive [inhibitor, partial curve]"
N#Cc1c(-c2ccco2)nc(SCC(=O)Nc2cccc(Cl)c2)[nH]c1=O,,"inconclusive [activator, single point]"
O=C(CNC(=O)Cc1ccccc1)N=Nc1c(O)[nH]c2ccccc12,inactive: -7.94%,
Cc1[nH]c2ccccc2c1/C=N/NC(=O)CNC(=O)c1ccccc1,,"inconclusive [activator, single point]"
CCOC(=O)c1cc(-c2ccccc2)nc2nc(N(CC)CC)sc12,,"inconclusive [activator, partial curve]"
CC(C)c1cc(C(=O)N2CCCC(C(=O)c3ccc4ccccc4c3)C2)on1 (stereo not drawn),,"inconclusive [activator, partial curve]"
Cc1cccc(NC(=S)NC(=O)Cc2ccccc2)c1C,inactive: -4.84%,
Cc1ccc(Cl)cc1NC(=O)Cn1cccc1,,"inconclusive [activator, partial curve, poor fit]"
C=CCOC(=O)C(=C)C,inactive: -1.86%,
COc1ccc(C2CC(C(F)(F)F)n3ncc(C(=O)Nc4c(C)n(C)n(-c5ccccc5)c4=O)c3N2)cc1 (stereo not drawn),inconclusive: 27.4% [activator],
O=c1oc2cc(O)ccc2cc1S(=O)(=O)c1ccccc1,,"inconclusive [activator, partial curve]"

SMILES,"activity change, negative = inhibition",Potency
COC(=O)c1cc2ccsc2n1CC(=O)N1CCCc2ccccc21,,"inconclusive [activator, full curve, poor fit]"
Cc1ccc(C2CC(=O)Oc3ccc(O)cc32)cc1 (stereo not drawn),inactive: 6.32% [at 89.1 µM],
COC(=O)c1cccc(OCC(O)Cn2cnc3cc(C)c(C)cc32)c1 (stereo not drawn),,"inconclusive [inhibitor, partial curve]"
CCCCCCSc1cccc(-c2nc3cc(C)ccn3c2NCc2ccccc2)c1,,"inconclusive [inhibitor, partial curve]"
Cc1cc(C)cc(NC(=S)NCc2ccc3[nH]c4c(c3c2)CCCC4)c1,,"inconclusive [activator, single point]"
Fc1ccc2[nH]c3c(N4CCc5ccccc5C4)ncnc3c2c1,inactive: -0.366%,
COc1ccc(C(=O)c2c(C(F)(F)F)oc3c2C(=O)c2ccccc2C3=O)cc1,inconclusive: 45% [activator],
COC(=O)c1ccc2[nH]c(C)cc(=O)c2c1,inactive: 4.76%,
Cc1cc(C)nc(N(C#N)CC(=O)N2CCC(C(N)=O)CC2)n1,,"inconclusive [activator, partial curve]"
CCc1ccc(NC(=O)COc2ccc(F)cc2C(=O)c2cnn(-c3ccccc3)c2)cc1,,"inconclusive [activator, partial curve]"
CC1CCc2c(C(=O)N3CCN(S(=O)(=O)c4cccs4)CC3)csc2C1 (stereo not drawn),,"inconclusive [activator, partial curve]"
COc1ccccc1C(C)NCC(=O)Nc1ccccc1C(F)(F)F (stereo not drawn),inactive: 1.33%,
COC(=O)c1ccc2c(c1)c(C#Cc1ccccc1)c(-c1ccccc1)n2C,,"inconclusive [activator, single point]"
Cc1cc(NC(=O)c2cccnc2)ccc1NC(=O)c1cc2ccccc2o1,,"inconclusive [activator, single point]"
O=C(CSc1nnc(Cc2cccs2)n1Cc1ccco1)Nc1cc(Cl)cc(Cl)c1,,"inconclusive [activator, single point]"
COc1cccc2cc(C(=O)NCCc3ccccc3)oc12,,"inconclusive [inhibitor, single point]"
COc1ccc(C2=CC3=C(Br)C(=O)C(C)(OC(=O)c4cnc5ccccc5n4)C(=O)C3=CO2)cc1 (stereo not drawn),inactive: -5.98%,
O=C(NN=C1CCN(Cc2ccccc2)CC1)c1cc2ccccc2cc1O,,"inconclusive [inhibitor, single point]"
O=C(O)c1ccccc1NS(=O)(=O)c1ccc(NNC(=S)Nc2ccc(OC(F)F)cc2)c([N+](=O)[O-])c1,,"inconclusive [inhibitor, partial curve]"
Cc1cc(C)n2c(Nc3ccc4c(c3)OCCO4)c(-c3ccccc3)nc2n1,,"inconclusive [activator, partial curve]"
CCOC(=O)N1CCN(C(=O)c2cc3c(s2)-c2c(C)cccc2OC3)CC1,,"inconclusive [activator, partial curve]"
Cc1c(CCOC(=O)C23CC4CC(CC(C)(C4)C2)C3)sc[n+]1CC(=O)c1ccccc1,,"inconclusive [inhibitor, single point]"
